# According to article PMC12136788:
# The list shows a part of the results.
# T1: UNK ZnF1-6 (called full-length) (human, UniProt Q9C0B0 30-357)
# T1 sequence: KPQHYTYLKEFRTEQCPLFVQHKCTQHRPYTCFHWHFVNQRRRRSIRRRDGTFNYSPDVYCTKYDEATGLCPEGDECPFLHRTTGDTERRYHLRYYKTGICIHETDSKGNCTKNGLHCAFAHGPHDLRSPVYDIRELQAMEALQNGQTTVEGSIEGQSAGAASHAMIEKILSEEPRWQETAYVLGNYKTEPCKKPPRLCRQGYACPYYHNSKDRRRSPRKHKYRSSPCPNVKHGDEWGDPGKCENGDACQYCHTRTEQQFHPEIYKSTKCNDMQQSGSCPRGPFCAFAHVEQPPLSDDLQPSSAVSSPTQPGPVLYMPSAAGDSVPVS
# B1: chr4:138169334:138169435:-|3pUTR|ENSG00000151012|msi1|FALSE|unique (ssRNA)
# RNA: GGGAGUUCUACAGUCCGACGAUCCCAUUUCACGCAGAAAAAAAGUCAGCCAGUAAUUAAGAAAAAAAGUGAUGGAGAUUAAGUAGUAUUUUGGCUUAUUUUUAGGACUCAUCAUGAGAAGACACAGUUCCUUUAAUCAGGAAACAACAGAGGAUUGAGCAUCA
# B2: chrX:150470157:150470258:+|CDS|ENSG00000013619|unk|FALSE|unique (ssRNA)
# RNA: GGGAGUUCUACAGUCCGACGAUCUCCAAAUGAGCUAGAUCUUGAGAAGAUACUGGGGACGAAGCCAGAAGAGCCACUGGUUUUAGAUCAUCCCCAGGCAACCCUAAGCACAACUCCCAAGCCUUCGGUUCAGAUGUCACACUUCAACAGAGGAUUGAGCAUCA
# B3: chr5:96760809:96763199:-|three_prime_utr|ENSG00000164307|control|control|control (ssRNA)
# RNA: GGGAGUUCUACAGUCCGACGAUCAGAAUCUCAGACUACAGCACUAAAUAUGCUUUGAUGCUACAUCAAACGGAAUGGAAGCAUAGCUGACUUCGCUAAAGUUACUUCAUCUCCAUCUAGCAAAUGAGGCACUGUUCUCAACCACAACAGAGGAUUGAGCAUCA
# B4: chr1:64832709:64832810:+|3pUTR|ENSG00000162437|msi1|FALSE|bound_elsewhere (ssRNA)
# RNA: GGGAGUUCUACAGUCCGACGAUCACAGCUAGAAAGUUUAAGGUAAUUUCUAAGUAUACUACCUAUAAGUAACUGAUAAGAAUUAGGCAUCAUUCAGUGAUAUAGCAGAUGACUAAUGGGUUUUUCAGGCCCUGCACUUCUCUUCAACAGAGGAUUGAGCAUCA
# B5: chr4:174259701:174259819:-|CDS|ENSG00000164117|unk|FALSE|unique (ssRNA)
# RNA: GGGAGUUCUACAGUCCGACGAUCAAAUCCACUUGGGGUCACUGUUCCAUAUACAAUAAGAACCCACCUUUAGGAUUUUCUUUUAGAAAAUUGUAUAUGCAGCUGGAUGAAGGCAGCCUCACCUUUAAUGCCAACCCAGAUGAGCAACAGAGGAUUGAGCAUCA
# B6: chr3:11557161:11557262:-|3pUTR|ENSG00000144560|msi1|total|mutant (ssRNA)
# RNA: GGGAGUUCUACAGUCCGACGAUCCCUCUGACUUUAUACUGUUAUUACUGCAUUUAUUAUUUGCUAUAUUAACCGCUACUAACCCGAAAUCCGAUGAAGCAAGCAUGACAGACACAGCUGUGGAGGUCACAGCUGCUCCUUUUUCAACAGAGGAUUGAGCAUCA
# B7: chr1:113590523:113590624:+|CDS|ENSG00000081026|unk|FALSE|unique (ssRNA)
# RNA: GGGAGUUCUACAGUCCGACGAUCUCAUCUGACUGGAUGAAGACUGUUCCAAGUUACAACCAAACAAAUAGCUCCAUGGACUUUAGAAAUUAUAUGAUGAGAGAUGAGACUCUGGAACCACUGCCCAAAAACUGGGAAAUGGCCCAACAGAGGAUUGAGCAUCA
# B8: chr11:27368498:27368690:-|CDS|ENSG00000205213|msi1|FALSE|unique (ssRNA)
# RNA: GGGAGUUCUACAGUCCGACGAUCACCCCUUUGUUUGCCAUUUCCUACAGGUGAAACGCCAUCAUUAGGAUUCACUGUAACGUUAGUGCUAUUAAACUCACUAGCAUUUUUAUUAAUGGCCGUUAUCUACACUAAACUAUACUGCAACAGAGGAUUGAGCAUCA
# B9: chr1:17826356:17826472:+|CDS|ENSG00000117148|unk|FALSE|unique (ssRNA)
# RNA: GGGAGUUCUACAGUCCGACGAUCAGGGAGCUGAUGGGGGAUCACGUCUCCUCCACCAAGGCCACAGUCUGGGAGGGUUCCAAUAGAAACUUUAGUGUCUGGCUAGGAGCGUCCGUGGUGGCUCACCUUUCUACCUACCAGUCUCAACAGAGGAUUGAGCAUCA
# B10: chr2:96375651:96375752:+|3pUTR|ENSG00000121152|unk|total|mutant (ssRNA)
# RNA: GGGAGUUCUACAGUCCGACGAUCAUUGACUAAGACAGUGGGUAUGCAAGAUAAGUUUAUUUUAUAUAAAAUACUUUGGGAAGCCGGUGUUCCCGGACUGGUGUGACAGUUCCAUGAAAUUAUGAGAGACCGGGGAUCCUUCCACAACAGAGGAUUGAGCAUCA
# B11: chr12:48145849:48145950:+|3pUTR|ENSG00000152556|msi1|total|mutant (ssRNA)
# RNA: GGGAGUUCUACAGUCCGACGAUCCAUGACCAGUUCUGGCCAGGAGCUGGAGGAGCAGGCAGUGGGUGGGAGCUCCUUUCCGGCCGAAUUUAACAUGACUUCUGCCCCAGCUUUAUCUGUCACACAAGGCUGGGCACCUCCCGUCAACAGAGGAUUGAGCAUCA
# B12: chr4:106367042:106367435:-|CDS|ENSG00000250298|control|control|control (ssRNA)
# RNA: GGGAGUUCUACAGUCCGACGAUCUUGUAGCCUGGGCCGCAGUUGUCACCUCCACAGCUUCAUGCGUCGAGGUGGGCUAGAGGUAGCCCUGCAGGUCCAGGUGUUGGACACUCCAGGUUAUCCACACAGCAGGCUGAGCAAGAACAACAGAGGAUUGAGCAUCA
# B13: chr1:62654060:62654161:-|CDS|ENSG00000116641|unk|FALSE|unique (ssRNA)
# RNA: GGGAGUUCUACAGUCCGACGAUCCUUGUUUUCUACCCAUCUCUUAUCCCAACUUUUUACAAAGGUGCCCCUUACCGAAGCAGUAGAUCCAGUGGAUUUGGAAGAUUACCUCAUUACUCAUCCUUUGGCUGUGGAUUCUGGGCCCAACAGAGGAUUGAGCAUCA
# B14: chr17:63832812:63832858:-|3pUTR|ENSG00000108604|msi1_unk|total|mutant (ssRNA)
# RNA: GGGAGUUCUACAGUCCGACGAUCCCAGCCCUGGAGCCUGGAGGGAGACCACCCUCUGGGUCCUUGCUGGGGCCGCAGACACGCCGGCUGGGGUGAGGAGUGUCUGCUGUCACCCUCUACUCUCCAGCUUCCGUCUUAUAAAUGCAACAGAGGAUUGAGCAUCA
# B15: chr17:41502224:41502594:-|three_prime_utr|ENSG00000171401|control|control|control (ssRNA)
# RNA: GGGAGUUCUACAGUCCGACGAUCCACGUCUGGAGCAGGAGAUCGCCACCUACCGCAGCCUGCUCGAGGGCCAGGACGCCAAGUAGGUCCUCUCCAGCCUCUUUCUUAGGAUAGUGACUGCAGGACCCGUGGGUGUCAGAGCAGCAACAGAGGAUUGAGCAUCA
# B16: chr3:111884732:111884833:+|CDS|ENSG00000144824|msi1|total|mutant (ssRNA)
# RNA: GGGAGUUCUACAGUCCGACGAUCCUUCAACCCAAGUUAACCCGACACAAGGAGCUUGCAUCUGAAAACAUCAAUUUGAGAACCCGGAAGUACUCCAGCAGCAGCCUGAGUCACAUGGGAGCCUACAGCCGAUCACUUCCCAGGCAACAGAGGAUUGAGCAUCA
# B17: ENSG00000110497:stop:overlap|stop_codon|ENSG00000110497|stop_codon|NA|stop_codon (ssRNA)
# RNA: GGGAGUUCUACAGUCCGACGAUCUGGAUGGUGGCAGCAGCAGGGGGGACGCUGCAGGCCCUAGGGGAGAACCACGGAACAGGUAGAGACAAACGUUGCACUGGUGCCUCCCCUCGAACCGCCAAGCAGAAACCGGACCUCACACAACAGAGGAUUGAGCAUCA
# B18: chr3:58172026:58172127:+|3pUTR|ENSG00000136068|msi1|FALSE|unique (ssRNA)
# RNA: GGGAGUUCUACAGUCCGACGAUCGGCAGACCUUUAGGUUUUGCUGCUUAGUCCUGAGGAAGUGGCCACUCUUGUGGCAGGUGUAGUAUCUGGGGCGAGUGUUGGGGGUAAAAGCCCACCCUACAGAAAGUGGAACAGCCCGGACAACAGAGGAUUGAGCAUCA
# B19: chr1:54779711:54781242:-|three_prime_utr|ENSG00000006555|control|control|control (ssRNA)
# RNA: GGGAGUUCUACAGUCCGACGAUCGGGACCCCGCCCAGGCCCCGCCCAGCUGAUGGGACCAGGUCCGGAUGGACUCCCUGCCUUAGGCUGACCUGGGAGCGGAGCCAGUUCGAUUCUUGGUCGGGAAUUGUGAAUGGGGAUGUUCAACAGAGGAUUGAGCAUCA
# B20: chr10:91942452:91942553:+|CDS|ENSG00000095564|unk|total|mutant (ssRNA)
# RNA: GGGAGUUCUACAGUCCGACGAUCAGUUCUAUGGAAGAUUCACCUACUACAGAGCGAUUGAAUUUUGACAGAUUUGAUAUAUGCCGAUUGUUACAACAUGGUGCAUCACUCCUGGGAUCUGCUGGUGCCGAAUUUGAAGUCCAACAACAGAGGAUUGAGCAUCA
# B21: chr8:23844609:23844711:-|3pUTR|ENSG00000159167|msi1|total|mutant (ssRNA)
# RNA: GGGAGUUCUACAGUCCGACGAUCUUCCGGGGUGUUGACACACCAGUUUUGAGUGUACUGUGCCUGGUUUGAUUUUUUUAAAGCCGUUCCUAUUUUCUAUCCCCCUUAAAGAAAAUUGCAUGAAACCCGGCUUCUGUAAUCAAUCAACAGAGGAUUGAGCAUCA
# B22: ENSG00000159842:stop:overlap|stop_codon|ENSG00000159842|stop_codon|NA|stop_codon (ssRNA)
# RNA: GGGAGUUCUACAGUCCGACGAUCACCCCCCCAUUUCCUUCGCAGAACUCAAGCGGAACACACUGUACUUCUCCACCGACGUGUAGCCCGAGGCAGGGUGGCUGCGGGCGGGUGGUGGAACCAGCCCCUCCAGCCUGGGGUCCACAACAGAGGAUUGAGCAUCA
# Target: T1, UNK ZnF1-6 (called full-length)
# Assay: nsRBNS (natural sequence RNA bind-n-seq); RBNS binding buffer (assumed for nsRBNS): 25 mM Tris pH 7.5, 150 mM KCl, 3 mM MgCl2, 0.01% Triton X-100, 500 ug/ml BSA, 20 U/ml SUPERase-In, 4 C; UNK is unkempt and MSI1 is Musashi-1; names of the RNAs are library labels; protein concentration not given here; high values mean tight binding
row,Binder,binding signal
1,B1,1.05 enrichment R
2,B2,0.539 enrichment R
3,B3,0.318 enrichment R
4,B4,1.22 enrichment R
5,B5,1.11 enrichment R
6,B6,0.51 enrichment R
7,B7,1.15 enrichment R
8,B8,0.97 enrichment R
9,B9,1.34 enrichment R
10,B10,0.779 enrichment R
11,B11,0.655 enrichment R
12,B12,0.697 enrichment R
13,B13,0.693 enrichment R
14,B14,0.444 enrichment R
15,B15,0.751 enrichment R
16,B16,0.72 enrichment R
17,B17,0.885 enrichment R
18,B18,0.805 enrichment R
19,B19,0.779 enrichment R
20,B20,0.379 enrichment R
21,B21,0.291 enrichment R
22,B22,0.667 enrichment R
